These results are taken from the supplement of paper PMC11417369.

± gives the standard deviation of the averaged measurements. The list shows a part of the results.

In this experiment the test system is PfAP2-EXP AP2 domain (GST-tagged). The experiment is described as follows: gcPBM binding intensity (ln(normalized median fluorescence intensity)); higher = stronger DNA binding. An outline of the steps: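 Each value is the highest Masliner-normalised natural-log median intensity across replicate spots of either orientation of a probe. The probes were primer-extended double-stranded 36-bp intergenic genomic sequences on an Agilent 4 × 180k array, alongside negative controls, exposed for 1 h to GST-tagged P. falciparum DNA-binding domains expressed in E. coli. Bound protein was picked up with Alexa488 anti-GST antibody and scanned at 488 nm.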
Consider “TTAATTATCCATTTTGCACACATTTTAAAACATGAA [CACACA_site189]”, for which the “gcPBM binding intensity (ln)” value was determined as 8.9 ± 0.46. For the sequence “AAAAAATTATTAATTTGTACATAAATAACCAAAAAA [XGTACX_site2488]”, the “gcPBM binding intensity (ln)” value turned out to be 8.43 ± 0.28. Regarding “TAATTTATTACCATGTAATTATTACGAATATAGGAT [CACACA_negctrl_site694]”, the “gcPBM binding intensity (ln)” value came out at 8.48 ± 0.44. For “TATATATTAAAATAATCACACACATCAATTAATGGT [CACACA_site8331]”, the “gcPBM binding intensity (ln)” value is 8.38 ± 0.42. “TTCAACGTTTTGGAATGTACAGAAAGGTATCCATCA [XGTACX_site179]”: the “gcPBM binding intensity (ln)” value was determined as 8.53 ± 0.47.

As for “GAAATATAATTTATTACACACATTTTAAAAAAATTC [CACACA_site1087]”, the “gcPBM binding intensity (ln)” value is 8.11 ± 0.28. In the case of “AAAAAAAAAAAAAAAAAAAAAAAAAAAAAATATGTG [GTGCAC_negctrl_site657]”, the “gcPBM binding intensity (ln)” value was 9.195 ± 0.064. With “TAAAAGATAAAATATGCATGTGTAATTTTTTTTTTT [TGCATGCA_site955]”, the “gcPBM binding intensity (ln)” value came to 8.43 ± 0.32. For “TTTATAACATTTAAGAGTACAAAAAAATAAATAAAT [XGTACX_site1264]” the value was 8.7 ± 0.46; for “TATTATTTACTTATTGCACACATATAAAATATATTT [CACACA_site9017]”, 8.69 ± 0.26. With “ATCTATCATATTTATGCACACAAAAATAATTAATTC [CACACA_site8837]”, the “gcPBM binding intensity (ln)” value is 8.78 ± 0.057. With “TCACACACTCTCAAAAGTACAAGAAGATTATGAAGA [XGTACX_site4748]”, the “gcPBM binding intensity (ln)” value is 8.87 ± 0.59. For “AAAAAAATATATAAATGTACATATTGTTTAATTAAT [XGTACX_site3794]” the value was 8.49 ± 0.4; for “ATGAACTAAACTAATCGTACAATAAGTTTTATTATA [XGTACX_site4891]”, 8.31 ± 0.3.

Turning to “GTTGTCCCCCTTTCTATGCACACTTTAAATTATTCA [CACACA_site52]”, the “gcPBM binding intensity (ln)” value is 9.12 ± 0.18. For “AATTTATAAGAATATTGTACGTTTAATATATTGTAA [XGTACX_site7553]” the value was 8.39 ± 0.16.

As to “ATTCTAATAGATAGTAGTACCTATAAGTTTTCTTTT [XGTACX_site2315]”, the “gcPBM binding intensity (ln)” value is 8.36 ± 0.4. For the sequence “AAGTTTATTATATATAAATTATTATATATATATATA [CACACA_negctrl_site189]”, the “gcPBM binding intensity (ln)” value worked out at 9.79 ± 0.26. On to “AAAATAATAATTAAATAATAGTAAATGAAAAATAAA [CACACA_negctrl_site57]”, for which the “gcPBM binding intensity (ln)” value came to 8.66 ± 0.46.

As to “ATAAATACTAGGCACACACACATATAGATTTATATA [CACACA_site7064]”, the “gcPBM binding intensity (ln)” value is 8.94 ± 0.54.

Regarding “TATGTGTTCAGTATTGCACACACACTCCAAAATAAA [CACACA_site8018]”, the “gcPBM binding intensity (ln)” value was found to be 8.39 ± 0.16. Consider “ACTTCATTTTATAAGTGTACATAATTTGTTTATATA [XGTACX_site5453]”, for which the “gcPBM binding intensity (ln)” value came out at 8.77 ± 0.33. Consider “ATATCAACTGAATTGTATAGGCGATAAAAGAAAAAA [CACACA_negctrl_site1334]”, for which the “gcPBM binding intensity (ln)” value stood at 8.78 ± 0.49. With “AGAATTATAAATTATAGTACATAAAATTTTGATGTA [XGTACX_site5726]”, the “gcPBM binding intensity (ln)” value came to 8.34 ± 0.31.
